In all, about 7,900 compounds went through this assay and about 400 (5.1%) showed an effect of 50% or more. This is one part of the list.

Sequence of Parkinson's disease protein 7 (PARK7/DJ1) (Q99497 whole entry, looked up, the tested form may be a part): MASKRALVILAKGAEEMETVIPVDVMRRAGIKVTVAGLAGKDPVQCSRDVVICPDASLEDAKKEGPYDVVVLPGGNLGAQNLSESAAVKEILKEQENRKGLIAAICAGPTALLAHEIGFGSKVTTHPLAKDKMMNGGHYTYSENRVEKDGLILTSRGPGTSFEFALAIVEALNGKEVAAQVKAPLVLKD

This experiment deals with Parkinson's disease protein 7 (PARK7/DJ1) (human, UniProt Q99497). The experiment is described as follows: primary screen, percent inhibition; read as competition with a fluorescent probe by fluorescence polarization; higher = more effect of the substance. To be noted: 100 µM. A digest of the protocol:
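Fluorescence-polarization probe displacement (JYQ-107, 20 nM final, 2 h) after 2 h preincubation of PARK7 (0.2 μM final) with each fragment at 100 μM final. Read-out ex/em 480/520 nm; remaining activity derived from FP signal loss relative to reference controls.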
On to `C=CC(=O)Nc1cnc(OC)cn1`, for which the Inhibition % was 2.86%.

Take `C=CC(=O)N1CCN(Cc2ccc(OC)c(F)c2)CC1`: the Inhibition % is 6.4%.

Consider `COc1ccccc1CS`, for which the Inhibition % turned out to be 1.46%.

Turning to `N#CC(C(=O)N1CCCC1)=C1N=C(N)c2ccccc21`, the Inhibition % is on record as 4.53%.

For the compound `Cc1cc(C#N)nc(NC2CCCC(C(F)(F)F)C2)n1` (stereo not shown), the Inhibition % was found to be 5.89%.

In the case of `C=CC(=O)Nc1ccc(N2CCCC2=O)c(OC)c1`, the Inhibition % was 13.1%.

For the compound `CN(Cc1cccc(F)c1)C(=O)CCl`, the Inhibition % is on record as 44.5%.

In the case of `Cc1ccc(C=CS(=O)(=O)Nc2cc(C)on2)cc1`, the Inhibition % is recorded as 6.27%.

Turning to `N#CC(=Cc1csc(COc2ccccc2)n1)C(N)=O`, the Inhibition % came to 1.79%.

For the compound `O=C(CCl)NCC1(c2ccccc2)CCOCC1`, the Inhibition % came out at 0.416%.

Regarding `COc1ccccc1NC(=O)CCl`, the Inhibition % came to 9.22%.

Take `CC(=O)NCCc1ccc(C(=O)CCl)cc1F`: the Inhibition % came out at 81.3%.

As to `OB(O)c1ccccc1OCC1CCOC1` (stereo not shown), the Inhibition % is recorded as 5.05%.

On to `C=CC(=O)N1CC(=O)N(CC2CC2)C1`, for which the Inhibition % was determined as 7.15%.

Consider `CC1(C)OB(c2ccc(CN3CCS(=O)(=O)CC3)cc2)OC1(C)C`, for which the Inhibition % stood at 1.69%.

On to `COc1cc(C=C(C#N)C(N)=O)ccc1O`, for which the Inhibition % stood at 21%.

For `COC(=O)c1ccc(Cl)c(NC(=O)CCl)c1`, the Inhibition % worked out at 11%.

For `CC1CC(N(C)Cc2ccc(Cl)nc2)C(=O)O1` (stereo not shown), the Inhibition % stood at 11.3%.

Turning to `COc1ccc(C(=O)CCl)cc1`, the Inhibition % is on record as 3.52%.

`C=CC(=O)N1CCN(c2ccnc(C)n2)CC1`: the Inhibition % was 7.33%.

Turning to `C=CC(=O)N(C)C1CC(c2ccccc2)C1` (stereo not shown), the Inhibition % is 8.45%.

On to `Cc1nc(S)c(C(N)=O)c(C)c1C`, for which the Inhibition % is -0.0342%.

On to `Cc1nc(C#N)n(CC(=O)N(C)Cc2cccs2)c1C`, for which the Inhibition % is reported as 3.54%.

Regarding `C#CC(=O)N1C[C@H]2CNC[C@H]2C1.O=C(O)C(F)(F)F`, the Inhibition % came to 1.17%.

Consider `C=CC(=O)Nc1cnc2c(C)cccn12`, for which the Inhibition % worked out at 8.53%.

Turning to `CC1(C)OB(c2cc(Cl)cc(Cl)c2)OC1(C)C`, the Inhibition % came to 81%.

On to `OB(O)c1ccc2ccccc2c1F`, for which the Inhibition % is reported as -0.918%.

`N#CC=C(N)c1ccc(Cl)cc1`: the Inhibition % was determined as 5.91%.

On to `C=CCn1c(S)nc2cc(C(=O)NCCO)ccc2c1=O`, for which the Inhibition % stood at 7.16%.

Regarding `CC(C)(C)n1ncc2c1CCCC2NC(=O)CCl.Cl` (stereo not shown), the Inhibition % is 12.4%.

Take `CC1(C)OB(c2cc(Cl)ccc2Cl)OC1(C)C`: the Inhibition % turned out to be 7.59%.

Regarding `C=CC(=O)NC1CCN(c2ccccc2C(F)(F)F)C1` (stereo not shown), the Inhibition % is 5.11%.

Consider `C=CC(=O)N1CCC(C(O)c2nccn2C)CC1` (stereo not shown), for which the Inhibition % came to 9.1%.

On to `O=C(CCCl)Nc1ccccc1Cl`, for which the Inhibition % is on record as 5.87%.

(Values after PMC9574860, “Chemical Toolkit for PARK7: Potent, Selective, and High-Throughput” (Journal of Medicinal Chemistry, 2022).)
